Here are results for 30 molecules from PubChem BioAssay AID488969 (Vanderbilt High Throughput Screening Facility, 2010).

The full ranking holds about 110,000 compounds; the median of “z-score” is about -0.1, and the highest 2% start at about 2. This is one part of the list.

In the test the target is Metabotropic glutamate receptor 8 (Rattus norvegicus) (UniProt P70579). Briefly: rat mGluR8 modulators via GIRK flux, primary screen, cell-based, thallium flux, HTS (AID 488969). The note with it: HEK293 rat mGluR8, GIRK (G protein-gated inwardly rectifying potassium channel) thallium flux, FluoZin2; at 10 µM; stronger effect = higher value; submaximal glutamate (EC20) added with thallium.
Sequence of UniProt P70579 (P70579 whole entry, looked up): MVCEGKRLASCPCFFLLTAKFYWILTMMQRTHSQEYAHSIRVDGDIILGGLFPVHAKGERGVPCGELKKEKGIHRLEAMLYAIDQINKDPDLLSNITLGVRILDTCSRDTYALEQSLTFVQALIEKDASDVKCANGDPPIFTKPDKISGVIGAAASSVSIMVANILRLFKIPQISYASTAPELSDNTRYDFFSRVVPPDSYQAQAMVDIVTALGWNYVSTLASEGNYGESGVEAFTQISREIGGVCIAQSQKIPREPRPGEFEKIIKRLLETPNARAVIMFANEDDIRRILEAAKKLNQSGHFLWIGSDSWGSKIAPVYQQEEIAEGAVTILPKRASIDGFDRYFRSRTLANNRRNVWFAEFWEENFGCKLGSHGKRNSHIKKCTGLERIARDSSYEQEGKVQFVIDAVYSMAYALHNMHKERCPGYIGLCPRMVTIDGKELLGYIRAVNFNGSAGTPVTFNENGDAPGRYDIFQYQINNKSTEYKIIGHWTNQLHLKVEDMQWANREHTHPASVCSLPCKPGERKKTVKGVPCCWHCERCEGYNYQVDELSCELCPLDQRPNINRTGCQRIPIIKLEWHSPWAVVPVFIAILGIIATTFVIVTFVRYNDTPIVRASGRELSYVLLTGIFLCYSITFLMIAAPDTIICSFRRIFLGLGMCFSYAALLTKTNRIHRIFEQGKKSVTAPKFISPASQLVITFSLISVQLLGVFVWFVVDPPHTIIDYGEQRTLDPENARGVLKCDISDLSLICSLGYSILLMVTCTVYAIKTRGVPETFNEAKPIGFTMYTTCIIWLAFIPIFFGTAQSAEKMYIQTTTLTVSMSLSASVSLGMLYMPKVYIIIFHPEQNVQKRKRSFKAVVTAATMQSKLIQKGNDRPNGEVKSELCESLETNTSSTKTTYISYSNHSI
The molecule `Cc1ccc(-n2c(C)cc(C(=O)COC(=O)c3c(C)noc3C)c2C)cc1` had a z-score of -1.59.

Take `CCCc1nc2sc3c(c2c(=O)n1NC(=O)CCCl)CCCC3`: the z-score is -0.0232.

Molecule `Cc1nc(/C=[N+](\[O-])C(C)(C)/C=N/O)n(O)c1C` showed a z-score of 0.192.

As for `CCN(c1ccccc1)S(=O)(=O)c1ccc2[nH]cc(C(=O)N3CCOCC3)c(=O)c2c1`, the z-score amounted to 0.567.

Turning to `CCCOn1c(OCC(C)C)nc2ccccc2c1=O`, the z-score is -0.497.

Consider `O=C(Nc1cccc2c1[nH]c1ccccc12)C(F)(F)F`, for which the z-score worked out at 0.34.

Consider `COC(=O)C(C)n1cnc2c(nnn2Cc2ccc(Cl)cc2)c1=O` (stereo not given), for which the z-score was -0.176.

With `COc1ccc(C)cc1S(=O)(=O)N1CCC(C(=O)N2CCN(C)CC2)CC1`, the z-score was -0.102.

As for `O=C(/C=C/c1ccccc1)N1CCN(c2ccc([N+](=O)[O-])c(N3CCOCC3)c2)CC1`, the z-score is -0.431.

In turn, `COc1ccccc1NC(=O)CN(C)S(=O)(=O)c1ccc(F)cc1` displayed a z-score of -0.0551.

The molecule `CNC(=O)CN1C(=O)c2cccc3cccc1c23` yielded a z-score of 0.394.

Molecule `COc1ccc(-c2cc(C(F)(F)F)nc(NC3CCCC3)n2)cc1OC` returned a z-score of 0.0196.

With `CCC1=Nc2ccccc2NC2=C1C(=O)CCC2`, the z-score is 0.743.

On to `O=C(Cn1c(SCC(=O)N2CCc3ccccc3C2)nc2ccccc21)NC1CCCC1`, for which the z-score was -0.106.

Consider `O=C(NNS(=O)(=O)c1ccccc1)c1cc2cc3ccccc3nc2s1`, for which the z-score was -0.185.

`Cn1c(=O)n(CC(=O)NCc2cccnc2)c2ccccc21` yielded a z-score of 0.0198.

With `Cc1ccc(C)c(NC(=O)CSc2ccc(-c3ccco3)nn2)c1`, the z-score was -0.235.

For `Cn1nc(-c2ccc(Cl)cc2)c2cc(C(=O)N3CCOCC3)sc21`, the z-score is -0.302.

With `O=C(CN1CCOCC1)c1c[nH]c2ccccc12`, the z-score was -0.0856.

On to `Cc1ncc(S(=O)(=O)c2ccccc2)c(-c2ccc(Cl)cc2Cl)n1`, for which the z-score is -0.306.

In turn, `CCOC(=O)C(Cc1cc(C(C)=O)ccc1OCC)C(=O)OCC` displayed a z-score of -0.173.

Consider `COc1ccc(C(=O)c2c[nH]c(C(=O)NCC3CCCO3)c2)cc1` (stereo not given), for which the z-score is -0.0371.

As for `CCOc1ccccc1NC(=O)C(OC(=O)c1ccc(N(C)C)cc1)c1ccccc1` (stereo not given), the z-score turned out to be 0.159.

Molecule `COc1cccc(OC)c1OCc1cc(C2C3CCCC=C3C(C#N)=C(N)C2(C#N)C#N)c(C)cc1C` (stereo not given) gave a z-score of 0.121.

`COc1ccc(-c2noc(CCC(=O)N3CCN(c4cccc(C(F)(F)F)c4)CC3)n2)cc1`: the z-score was -0.0361.

The molecule `CCn1c(SC)nnc1-c1sc2cc(Cl)ccc2c1Cl` had a z-score of -2.4.

In turn, `NC(=O)C1(N2CCCCC2)CCN(C(=O)c2ccccc2)CC1` gave a z-score of 0.148.

The molecule `S=C(NCCc1ccccc1)Nc1ccccc1Cl` came in with a z-score of -0.00832.

Consider `CCOC(=O)CNC=C(C(=O)OCC)C(=O)OCC`, for which the z-score was -0.0489.

Regarding `C=CCSc1nnc2c(n1)OC(c1c(C)[nH]n(-c3ccccc3)c1=O)Nc1ccccc1-2` (stereo not given), the z-score is -0.49.
